Screen size: about 48,000 compounds; about 550 (1.1%) were called active. About 4% were inconclusive and are not listed. No stated cut-off is given here; in the data, active means potency below about 15 µM; inconclusive means mostly about 16 µM to 33 µM; inactive means weaker than that. Some of the results follow.
molecular target: Lysosomal acid glucosylceramidase (Homo sapiens) (UniProt P04062); assay: Glucocerebrosidase; details: purified enzyme, resorufin glucoside fluorescence (screen aimed at inhibitors), 20 min;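 further: the screen sought inhibitors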
Procedure, shortened: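 Compounds titrated against 0.2 nM normal enzyme, 30 uM resorufin beta-D-glucopyranoside substrate, citrate/phosphate buffer with taurocholate and tween-20, pH 5.9. Reaction ran 20 min at room temperature; fluorescence (Ex 548/Em 600) gave AC50.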
Potency means the concentration at half of the fitted maximal effect.

Chain of UniProt P04062 (P04062 whole entry, looked up): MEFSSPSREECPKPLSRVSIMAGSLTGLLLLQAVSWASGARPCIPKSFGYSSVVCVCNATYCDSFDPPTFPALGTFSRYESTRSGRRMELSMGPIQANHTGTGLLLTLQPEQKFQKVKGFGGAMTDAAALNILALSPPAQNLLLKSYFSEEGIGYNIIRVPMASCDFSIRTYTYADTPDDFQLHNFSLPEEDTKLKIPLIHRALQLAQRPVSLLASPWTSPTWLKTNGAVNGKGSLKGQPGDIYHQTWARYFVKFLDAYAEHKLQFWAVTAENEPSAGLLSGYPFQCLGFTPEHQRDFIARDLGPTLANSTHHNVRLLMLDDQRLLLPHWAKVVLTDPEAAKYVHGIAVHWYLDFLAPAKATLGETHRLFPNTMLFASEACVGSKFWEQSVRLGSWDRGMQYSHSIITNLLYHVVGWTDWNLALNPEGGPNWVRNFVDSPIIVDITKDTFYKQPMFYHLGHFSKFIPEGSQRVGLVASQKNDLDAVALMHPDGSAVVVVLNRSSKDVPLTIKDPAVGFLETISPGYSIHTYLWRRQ

Potency, inactive:
O=C(Cn1cnc2ccccc2c1=O)NCC(=O)N1CCN(Cc2ccc3c(c2)OCO3)CC1 > 76.9 µM
Cc1cccc(N2CCN(S(=O)(=O)c3ccc4c(c3)CCN4C(=O)CCC(=O)O)CC2)c1C > 76.9 µM
C=CCNc1nnc(C)c2ccccc12 > 76.9 µM
CS(=O)(=O)N1CCC(C(=O)Nc2c(F)cccc2F)CC1 > 76.9 µM
C=CCn1c(CCCNC(=O)CCC)nc2ccccc21 > 76.9 µM
Cn1c(=O)c2c(ncn2CC(O)CNc2ccc(Br)cc2)n(C)c1=O (configuration not stated) > 76.9 µM
COc1ccc(CC2C(=O)OC(C)(C)OC2=O)cc1 > 76.9 µM
CCSc1sccc1C1C(C#N)=C(N)N(c2cccnc2)C2=C1C(=O)CCC2 (configuration not stated) > 76.9 µM
COCCn1c(C2CCCCC2)nc2sc3ccccc3c(=O)c2c1=O > 76.9 µM
O=C(NCc1cccs1)C1CCCN1C(=O)NC1CCCCC1 (configuration not stated) > 76.9 µM
C/C(N)=C(/C#N)C(=O)CSc1nc(C2CCCCC2)n(-c2ccccc2)n1 > 76.9 µM
CCN1CCC(NC(=O)c2cc(OC)c(OC)cc2OC)CC1 > 76.9 µM
Cn1c(C(=O)N2CCCC(C(=O)NCCCSC3CCCCC3)C2)cc2sccc21 (configuration not stated)
O=C(c1cccc(F)c1)N1C2C=CC(C2)C1(C(F)(F)F)C(F)(F)F (configuration not stated) > 76.9 µM
O=C(COC(=O)c1ccccc1C(=O)c1ccccc1)c1ccco1 > 76.9 µM
O=C(CSc1cccc[n+]1[O-])c1cc2ccccc2o1 > 76.9 µM
COCCN1CCn2c(nc3cc(NC(=O)c4ccc(OC)cc4)ccc32)C1
COc1ccc(C2C(C(=O)Nc3ccccc3OC)=C(C)Nc3nnnn32)c(OC)c1 (configuration not stated) > 76.9 µM
CC(=O)N1CCN(C(=O)Nc2cccc(C(F)(F)F)c2)CC1 > 76.9 µM
CCS(=O)(=O)c1nc2ccccc2n1CC(=O)N1CCOCC1 > 76.9 µM
O=C(Nc1ccccc1C(=O)OCn1nnc2ccccc2c1=O)c1ccco1
O=C(CC(Nc1ccc(F)cc1)C(=O)O)c1ccccc1 (configuration not stated) > 76.9 µM
O=C(NC1CC1)c1ccc2c(c1)ncn2C1CCCC1 > 76.9 µM
CCC(C)c1ccc2oc(-c3ccc(NC(=O)Cn4cnc5c(=O)n(C)c(=O)n(C)c54)cc3)nc2c1 (configuration not stated) > 76.9 µM
COc1cccc2cc(NC(=O)C3CCCCC3)c(=O)oc12 > 76.9 µM
CCCCOc1nc2ccccc2nc1C(C#N)S(=O)(=O)c1ccccc1 (configuration not stated) > 76.9 µM
CN(C1CCS(=O)(=O)C1)S(=O)(=O)c1ccc(N2CCCC2=O)cc1 (configuration not stated) > 76.9 µM
CCC(=O)Nc1ccc(NC(=O)c2c(C)nc3ccccn23)cc1 > 76.9 µM
CC(=O)OC1CC(C)(C)N(OC(=O)CCCN2C(=O)c3ccccc3C2=O)C(C)(C)C1 > 76.9 µM
O=C(CCN1CCCCC1)NCNC(=O)CCN1CCCCC1 > 76.9 µM
CCOC(=O)/N=C(/NC(=O)Nc1ccc(C(=O)OCC)cc1)OC > 76.9 µM
Cc1cc(C#N)c2ccccc2n1 > 76.9 µM
CC(=O)Nc1ccc(NC(=O)CN2CCCC(C)C2)c(Cl)c1 (configuration not stated) > 76.9 µM
O=c1c(-c2ccc3c(c2)OCCO3)coc2cc(O)cc(O)c12 > 76.9 µM
COC(=O)CC1Oc2ccccc2N(Cc2ccc(C)cc2)C1=O (configuration not stated) > 76.9 µM
CSc1nnc(Cc2cc(=O)[nH]c(=O)[nH]2)n1-c1cc(C)ccc1C > 76.9 µM
CCn1c(SCC(=O)N2c3ccccc3CCc3ccccc32)nc2c1c(=O)n(C)c(=O)n2C > 76.9 µM
COc1ccc(S(=O)(=O)NC(CC(=O)NCC2CCCO2)c2ccco2)cc1 (configuration not stated) > 76.9 µM
CC1CCN(C(=O)c2ccc(N(C)S(C)(=O)=O)cc2)CC1 > 76.9 µM
CN1C(=O)CSc2ccc(NC(=O)N3CCc4ccccc43)cc21 > 76.9 µM
COc1cc(C2C(C(C)=O)=C(O)C(=O)N2CCc2c[nH]c3ccccc23)ccc1O (configuration not stated) > 76.9 µM
C=CCSc1nc(N)c(C#N)c(-c2ccc(C)cc2)c1C#N > 76.9 µM
Cc1ccc(CCN2CC(C(=O)NCCN3CCOCC3)CC2=O)cc1 (configuration not stated) > 76.9 µM
C=Cn1nc(C)c2ccccc2c1=O > 76.9 µM
C=CCn1c(SC2CCOC2=O)nc2scc(C3CC3)c2c1=O (configuration not stated) > 76.9 µM
COc1ccc(OC)c(NC(=O)CN2CCN(C(=O)c3ccco3)CC2)c1 > 76.9 µM
Cc1ccc(N(C=NC#N)CC(=O)N2CCN(c3ccccc3)CC2)cc1 > 76.9 µM
OCc1nc2ccccc2n1C/C=C/c1ccccc1 > 76.9 µM
O=C(CN(Cc1ccccc1F)C(=O)c1ccco1)NCc1ccc(F)cc1 > 76.9 µM
Cc1onc(-c2ccccc2)c1C(=O)OCC(=O)Nc1ccc2c(c1)OCO2 > 76.9 µM
CCOC(=O)c1ccc(Nc2ncnc3c2cnn3C)cc1
Cn1c(-c2cccc(Br)c2)cnc1NCc1cccnc1 > 76.9 µM
COC(=O)Cc1[nH]nc2c1C(C1C=CCCC1)C(C#N)=C(N)O2 (configuration not stated) > 76.9 µM
Oc1ccc(CN2CCN(Cc3ccccc3)CC2)c2cccnc12 > 76.9 µM
COc1ccc(NC(=O)Cn2nc3n(c2=S)CCC3)cc1 > 76.9 µM
COC(=O)COc1cccc(NS(=O)(=O)c2ccc(NC(C)=O)cc2)c1 > 76.9 µM
COc1ccccc1C(=O)Nc1ccccc1C(=O)N1CCCC1 > 76.9 µM
C=CCSc1nsc(N)n1 > 76.9 µM
O=C1c2ccccc2C(=O)N1CCCP(=O)(O)CCc1ccccc1 > 76.9 µM
COc1cccc(-c2cc(C(=O)Nc3ccccc3SC)no2)c1 > 76.9 µM
c1coc(CNc2c3c(nc4ncnn24)CCC3)c1 > 76.9 µM
CCOC(=O)N1CCN(C(=O)c2ccc3c(c2)NC(=O)C(N2CCOCC2)S3)CC1 (configuration not stated) > 76.9 µM
Cn1cc(CNC(=O)COc2ccc(Cl)cc2Cl)cn1 > 76.9 µM
CC1CC(C)CN(c2ncc3c(n2)CC(c2ccccc2)CC3=O)C1 (configuration not stated) > 76.9 µM
O=C1NC(Cc2c[nH]c3ccccc23)C(=O)N1CCOc1ccc(F)cc1 (configuration not stated) > 76.9 µM
COCCCn1cnc2c(c1=O)c1nc3ccccc3nc1n2-c1ccccc1 > 76.9 µM
CCN(CC)C(=O)CSc1nnc(CCNC(=O)OC(C)(C)C)o1 > 76.9 µM
COc1ccc2cc3cc(C(=O)Nc4ccccc4N4CCN(C)CC4)oc3nc2c1 > 76.9 µM
CC(=O)c1ccccc1Oc1nc(CN2CCOCC2)nc2scc(-c3cccs3)c12 > 76.9 µM
COc1cccc(Oc2nc3ncn(Cc4ccccc4)c3c(=O)n2C)c1 > 76.9 µM
CCCOC(=O)c1cc(=O)[nH]c2ccccc12 > 76.9 µM
Cc1ccc(C)c(NC(=O)C2CC(Cl)=CCC2C(=O)O)c1 (configuration not stated) > 76.9 µM
Cn1c(=O)[nH]c(=O)c2c1nc(N1CCNCC1)n2CCOc1ccccc1 > 76.9 µM
N#CCCSc1ncnc2c1oc1ccccc12 > 76.9 µM
CCOC(=O)N1CCN(C(=O)C(NC(=O)c2ccc(CC)cc2)C(C)C)CC1 (configuration not stated) > 76.9 µM
CSc1nc2c(c(=O)[nH]1)C(c1ccncc1)C(C(=O)OC(C)C)=C(C)N2 (configuration not stated) > 76.9 µM
CCOC(=O)c1nc(C)[nH]c1C(=O)OCC > 76.9 µM
COc1ccc(OC)c(Nc2cc(C)nc3ccccc23)c1 > 76.9 µM
COc1ccc(-c2nnc(SCC(=O)Nc3ccc(C)cc3)n2C)cc1 > 76.9 µM
Cc1nonc1NC(=O)CSc1nnc(-c2ccoc2C)n1CC(C)C > 76.9 µM
COc1cccc(-c2csc3nc[nH]c(=O)c23)c1 > 76.9 µM
CCOc1ccc2[nH]c3c(N4CCN(c5ccccn5)CC4)ncnc3c2c1 > 76.9 µM
COc1ccc(NC(=O)CSc2nnc(C(C)C)n2N)cc1 > 76.9 µM
CCCc1cc(C(=O)N2CCN(S(=O)(=O)c3ccc(OC)c(OC)c3)CC2)cs1 > 76.9 µM
c1ccc(-c2nnc(SCc3nc4ccccc4[nH]3)n2Cc2ccco2)nc1 > 76.9 µM
Nc1nonc1-c1nc2ccccc2n1CCC(=O)O > 76.9 µM
COc1ccc(-c2c3c(=O)n(C)c(=O)n(C)c3cn2NC(C)=O)cc1 > 76.9 µM
CC(=O)C1=C(O)C(=O)N(Cc2ccccc2)C1c1cccs1 (configuration not stated) > 76.9 µM
Cc1ccc(S(=O)(=O)N2CCN(C(=O)CSc3nnc(C)c(=O)[nH]3)CC2)cc1 > 76.9 µM
COc1ccc2nc3oc(C(=O)N4CCN(c5ccccc5F)CC4)cc3cc2c1 > 76.9 µM
COc1c(S(=O)(=O)N2CCCCC2)ccc2c(S(=O)(=O)N3CCCCC3)cccc12
O=C(O)c1nn(-c2ccc(Cl)cc2)ccc1=O > 76.9 µM
